# This list was built around the results that the source calls inconclusive (neither active nor inactive); the mix of calls is not that of the screen. For some assays here: Potencies beside an inconclusive call are fits to weak or partial responses and may not hold up. The source made the active and inactive calls. Unless noted, the call rests on the fitted dose curve; in most records, active means well fitted curve in the direction sought with a large enough effect in the repeat runs; inconclusive means weak or mixed curves; inactive means no such curve, though single readings can be large; an effect the other way counts as inactive or inconclusive.
# Key:
# [1] = biological target: Estrogen receptor (Homo sapiens) (UniProt P03372); test: qHTS assay to identify small molecule antagonists of the estrogen receptor alpha (ER-alpha) signaling pathway (AID 743069; active means well fitted curve in the direction sought with a large enough effect in the signal ratio in the repeat runs, not every such curve was filed as active; inconclusive means weak or mixed curves, or effect the other way; inactive means no such curve, though single readings can be large or run the other way; the % refers to the signal ratio; further: on the % scale 0 is the no-effect control and ±100 the full control effect); details: HEK293 ER-alpha-UAS-bla, beta-lactamase ratio, antagonist mode; activity, negative = inhibition: at 69.4 µM (top of the series) unless noted
# UniProt P03372, sequence (P03372 whole entry, looked up): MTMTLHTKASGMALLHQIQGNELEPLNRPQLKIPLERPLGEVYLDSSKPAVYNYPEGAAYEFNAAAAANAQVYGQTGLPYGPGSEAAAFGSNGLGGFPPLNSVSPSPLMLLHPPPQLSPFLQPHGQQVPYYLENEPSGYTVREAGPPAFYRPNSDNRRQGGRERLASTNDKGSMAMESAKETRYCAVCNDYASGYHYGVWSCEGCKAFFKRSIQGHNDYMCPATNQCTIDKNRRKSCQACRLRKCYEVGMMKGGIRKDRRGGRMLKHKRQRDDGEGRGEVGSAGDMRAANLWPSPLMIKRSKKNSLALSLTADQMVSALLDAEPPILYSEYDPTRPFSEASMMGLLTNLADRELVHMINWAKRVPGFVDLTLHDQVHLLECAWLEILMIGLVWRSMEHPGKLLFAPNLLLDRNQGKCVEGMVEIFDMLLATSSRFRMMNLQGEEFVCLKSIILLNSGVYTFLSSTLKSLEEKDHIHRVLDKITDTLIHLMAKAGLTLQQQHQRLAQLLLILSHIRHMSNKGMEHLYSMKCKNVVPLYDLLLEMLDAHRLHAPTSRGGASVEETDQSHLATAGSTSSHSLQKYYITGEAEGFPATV
# Summary of the method: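 Fluorescence intensity from a beta-lactamase FRET substrate served as the read-out. Cells: HEK293 with stably integrated ER-alpha-UAS-bla reporter. Agonist 17beta-estradiol was co-added with compounds; incubation 18 hr at 37C, substrate 2 hr at room temperature.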
# [2] = qHTS assay to identify small molecule antagonists of the estrogen receptor alpha (ER-alpha) signaling pathway - cell viability counter screen (AID 743074; calls by dose curve; further: nearly all actives have a fitted effect of over 45% in size; further: potency means the concentration at half of the fitted maximal effect)
# [3] = biological target: Luciferin 4-monooxygenase (Photinus pyralis) (UniProt P08659); test: qHTS assay to identify small molecule inhibitors of firefly luciferase (AID 1224835); further: nearly all actives have a fitted effect of over 25% in size; further: potency means the concentration at half of the fitted maximal effect
# UniProt P08659, sequence (P08659 whole entry, looked up): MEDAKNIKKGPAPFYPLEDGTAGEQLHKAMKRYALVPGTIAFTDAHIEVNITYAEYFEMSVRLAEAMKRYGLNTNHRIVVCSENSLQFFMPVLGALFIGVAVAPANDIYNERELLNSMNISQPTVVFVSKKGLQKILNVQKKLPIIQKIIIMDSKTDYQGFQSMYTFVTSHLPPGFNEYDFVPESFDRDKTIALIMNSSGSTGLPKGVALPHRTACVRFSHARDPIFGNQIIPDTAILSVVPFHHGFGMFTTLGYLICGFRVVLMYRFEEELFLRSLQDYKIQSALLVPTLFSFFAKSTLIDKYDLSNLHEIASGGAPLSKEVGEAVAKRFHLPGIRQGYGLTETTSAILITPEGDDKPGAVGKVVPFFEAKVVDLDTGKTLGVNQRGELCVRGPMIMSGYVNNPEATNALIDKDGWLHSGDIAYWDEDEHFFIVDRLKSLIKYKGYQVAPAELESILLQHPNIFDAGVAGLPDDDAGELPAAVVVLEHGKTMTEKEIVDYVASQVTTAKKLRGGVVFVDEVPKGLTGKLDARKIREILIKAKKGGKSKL
# Summary of the method: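 Inhibition of purified Photinus luciferase is measured by luminescence. Substrate levels (D-luciferin, ATP) sit at their KM values. Each compound is tested in a concentration series.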
# [4] = qHTS assay to identify small molecule antagonists of the sonic hedgehog signaling (Shh) pathway (AID 1259369; calls by dose curve; further: nearly all actives have a fitted effect of over 45% in size; further: potency means the concentration at half of the fitted maximal effect)
# Summary of the method: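 Cells are plated and held 4hr at 37 C, compounds (DMSO) are pinned in, conditioned medium is added to stimulate the pathway, and after 24hr luciferase reagent is added for 30min before luminescence is read.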
# [5] = qHTS assay to identify small molecule antagonists of the progesterone receptor (PR) signaling pathway - cell viability counter screen (AID 1346798); further: on the % scale 0 is the no-effect control and ±100 the full control effect; nearly all actives have a fitted effect of over 50% in size
# Summary of the method: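 Counter screen for cytotoxicity: viability of PR-UAS-bla HEK293T cells was measured with CellTiter-Glo luminescence following 16 hr compound exposure in the presence of R5020.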
# [6] = Human pregnane X receptor (PXR) small molecule agonists, qHTS cell viability counter screen (AID 1346977); further: nearly all actives have a fitted effect of over 50% in size; further: potency means the concentration at half of the fitted maximal effect
# Summary of the method: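 Cytotoxicity counter screen run in the same wells as the PXR luciferase assay, using PXR-Luc HepG2 cells in charcoal-stripped serum medium. Viability: CellTiter-Fluor fluorescence after 24hr compound treatment.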
# [7] = biological target: Vitamin D3 receptor (Homo sapiens) (UniProt P11473); test: qHTS assay to identify small molecule agonists of the vitamin D receptor (VDR) signaling pathway (AID 743222; calls by dose curve; further: on the % scale 0 is the no-effect control and ±100 the full control effect); details: HEK293T VDR-UAS-bla, beta-lactamase FRET ratio, 16 h; activation: at 63.5 µM (top of the series) unless noted
# UniProt P11473, sequence (P11473 whole entry, looked up): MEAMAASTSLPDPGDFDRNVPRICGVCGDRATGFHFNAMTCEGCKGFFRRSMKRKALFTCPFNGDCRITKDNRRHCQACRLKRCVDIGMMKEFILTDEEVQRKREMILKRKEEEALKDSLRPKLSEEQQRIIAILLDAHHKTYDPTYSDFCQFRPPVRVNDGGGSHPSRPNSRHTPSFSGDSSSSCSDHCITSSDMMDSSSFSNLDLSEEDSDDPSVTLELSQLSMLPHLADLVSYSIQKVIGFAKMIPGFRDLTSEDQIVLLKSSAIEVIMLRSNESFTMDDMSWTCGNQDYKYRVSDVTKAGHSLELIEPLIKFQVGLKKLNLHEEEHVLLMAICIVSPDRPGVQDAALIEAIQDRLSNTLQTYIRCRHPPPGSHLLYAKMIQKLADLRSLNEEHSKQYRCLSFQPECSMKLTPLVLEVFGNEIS
# Summary of the method: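 Cells carrying a VDR-driven beta-lactamase reporter are seeded at 2,000 per well and rested 4 h. Compounds in DMSO are added for 16 h at 37C, and FRET substrate fluorescence is measured after 2 h at room temperature.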
# [8] = qHTS assay to identify small molecule agonists of H2AX (AID 1224845; active means well fitted activation curve with a large enough effect in the signal ratio in the repeat runs, not every such curve was filed as active; inconclusive means weak or mixed curves; the % refers to the signal ratio; further: on the % scale 0 is the no-effect control and ±100 the full control effect); details: CHO-K1 phospho-H2AX Ser139 HTRF, 3 h; activation (H2AX phosphorylation): at 154 µM (top of the series) unless noted
# Summary of the method: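 Phospho-H2AX Ser139 measured by HTRF (ex 320 nm; em 665 and 620 nm) after 24 hr antibody incubation. Compounds, 15 concentrations, 0.76% DMSO, were applied to CHO-K1 cells for 3hr at 37C before lysis.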
# [9] = biological target: Cytochrome P450 2D6 (Homo sapiens) (UniProt P10635); test: Cytochrome P450 Family 2 Subfamily D Member 6 (CYP2D6) small molecule antagonists: luciferase reporter qHTS assay (AID 1671196); further: nearly all actives have a fitted effect of over 50% in size; further: potency means the concentration at half of the fitted maximal effect
# UniProt P10635, sequence (P10635 whole entry, looked up): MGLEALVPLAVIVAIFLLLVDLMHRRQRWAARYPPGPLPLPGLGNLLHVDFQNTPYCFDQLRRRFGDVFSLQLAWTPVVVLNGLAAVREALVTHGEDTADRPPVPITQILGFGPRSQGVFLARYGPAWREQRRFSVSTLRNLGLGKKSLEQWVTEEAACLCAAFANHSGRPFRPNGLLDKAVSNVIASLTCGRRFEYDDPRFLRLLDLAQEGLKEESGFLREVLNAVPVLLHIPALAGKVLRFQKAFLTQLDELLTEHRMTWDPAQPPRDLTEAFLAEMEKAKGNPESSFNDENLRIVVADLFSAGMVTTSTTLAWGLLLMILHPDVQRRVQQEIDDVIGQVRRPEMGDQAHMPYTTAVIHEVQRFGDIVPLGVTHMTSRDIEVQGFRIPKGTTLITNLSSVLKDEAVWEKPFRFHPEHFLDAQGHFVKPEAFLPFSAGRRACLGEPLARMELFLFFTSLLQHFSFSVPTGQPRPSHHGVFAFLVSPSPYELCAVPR
# Summary of the method: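 Enzyme and proluciferin substrate were first combined with test chemical for 10 min at room temperature. Adding NADPH regeneration solution started a 1 h reaction, stopped with luciferin detection reagent and read by luminescence 20 min later.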
# [10] = qHTS assay to identify small molecule agonists of the constitutive androstane receptor (CAR) signaling pathway - cell viability counter screen (AID 1224836); further: nearly all actives have a fitted effect of over 45% in size; further: potency means the concentration at half of the fitted maximal effect
# Summary of the method: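 Cells were seeded and incubated 4 hrs. Compounds were added across 15 concentrations together with PK11195 at 0.75 uM final. Plates were incubated 23 hrs at 37 C. CellTiter-Fluor was added and fluorescence measured.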
# [11] = qHTS RealTime-Glo MT Cell Viability Assay in HEK293 cells - 32 hour (AID 1224868); further: nearly all actives have a fitted effect of over 50% in size; further: potency means the concentration at half of the fitted maximal effect
# Summary of the method: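 Luminescence generated by NanoLuc from substrate produced by living HEK293 cells served as the viability signal. Each value reflects the reading at its stated time point during continuous 40 h compound exposure at 37 C.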
# [12] = qHTS assay to identify small molecule agonists of the estrogen receptor beta (ER-beta) signaling pathway - cell viability counter screen (AID 1259380); further: potency means the concentration at half of the fitted maximal effect; nearly all actives have a fitted effect of over 30% in size
# Summary of the method: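 Cytotoxicity is measured in parallel with the reporter screen: after 16 hr compound exposure at 37C and a 2 hr LiveBLAzer step, CellTiter-Glo is added to the same ER-beta-UAS-bla HEK293T wells and luminescence read after 30 min.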
# [13] = biological target: Peroxisome proliferator-activated receptor delta (Homo sapiens) (UniProt Q03181); test: qHTS assay to identify small molecule agonists of the peroxisome proliferator-activated receptor delta (PPARd) signaling pathway (AID 743212; calls by dose curve;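 further: HEK293H cells with PPARd UAS beta-lactamase reporter GeneBLAzer system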; further: potency means the concentration at half of the fitted maximal effect); details: HEK293H PPARd-UAS-bla, beta-lactamase FRET ratio, 17 h; activation: at 62.6 µM (top of the series) unless noted
# UniProt Q03181, sequence (Q03181 whole entry, looked up): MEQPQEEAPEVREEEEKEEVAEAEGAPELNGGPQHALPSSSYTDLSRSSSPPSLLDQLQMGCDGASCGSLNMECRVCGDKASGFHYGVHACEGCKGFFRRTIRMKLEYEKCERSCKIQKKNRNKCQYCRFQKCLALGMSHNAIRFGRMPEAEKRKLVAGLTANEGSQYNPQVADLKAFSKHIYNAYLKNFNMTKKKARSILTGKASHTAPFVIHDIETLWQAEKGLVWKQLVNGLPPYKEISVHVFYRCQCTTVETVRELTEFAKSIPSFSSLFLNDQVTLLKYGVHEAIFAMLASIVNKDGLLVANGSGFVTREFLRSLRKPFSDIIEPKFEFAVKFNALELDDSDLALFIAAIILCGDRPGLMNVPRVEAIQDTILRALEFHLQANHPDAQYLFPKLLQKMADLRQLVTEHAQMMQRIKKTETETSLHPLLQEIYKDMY
# Summary of the method: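 Steps: seed PPARd-bla HEK293H cells; incubate 5 h, 37 C, 5% CO2; add compounds in DMSO; incubate, 37 C; add LiveBLAzer B/G FRET substrate; hold 2 h at room temperature; measure fluorescence.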
# [14] = qHTS assay to identify small molecule agonists of H2AX - cell viability counter screen (AID 1224847; calls by dose curve; further: top concentration of the series differs between compounds; on the % scale 0 is the no-effect control and ±100 the full control effect; nearly all actives have a fitted effect of over 30% in size)
# Summary of the method: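 Cytotoxicity counter screen in wild-type CHO-K1 cells: a 3 hr compound treatment at 37C across 15 concentrations, followed by CellTiter-Glo luminescence to gauge viable cells.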
# [15] = qHTS assay to identify small molecule antagonists of the estrogen related receptor signaling pathway with the pleiotropic PPARgamma coactivator (PGC) from Tox21 10K library (AID 1224841; call rule not given here)
# Summary of the method: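 Steps: plate 2,000 PGC/ERR cells per well; incubate 6 h at 37 C with 5% CO2; transfer compounds from DMSO stocks by pin tool; incubate 18 h at 37 C; add One-Glo; measure luminescence 30 min later.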
# [16] = qHTS assay for identifying genotoxic compounds that show differential cytotoxicity against isogenic chicken DT40 cell lines with known DNA damage response pathways - Rad54/Ku70 mutant cell line (AID 743015); details: DT40 Rad54/Ku70 mutant viability, CellTiter-Glo, 40 h; activity change, negative = cytotoxicity: at 66.8 µM (top of the series) unless noted; further: potency means the concentration at half of the fitted maximal effect; nearly all actives have a fitted effect of over 60% in size
# [17] = qHTS assay to identify small molecule antagonists of the peroxisome proliferator-activated receptor delta (PPARd) signaling pathway - cell viability counter screen (AID 743213); details: PPARd-bla HEK293H viability, CellTiter-Glo luminescence, 17 h; viability change, negative = cytotoxic: at 62 µM (top of the series) unless noted
# Summary of the method: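 In this counter screen, HEK293H cells carrying a UAS-beta-lactamase reporter are co-treated with test compounds and 300 nM L165041 (final) for 17 h at 37 C; cell viability is quantified by CellTiter-Glo luminescence.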
# [18] = biological target: Estrogen receptor beta (Homo sapiens) (UniProt Q92731); test: qHTS assay to identify small molecule agonists of the estrogen receptor beta (ER-beta) signaling pathway (AID 1259377; active means well fitted activation curve with a large enough effect in the signal ratio in the repeat runs, not every such curve was filed as active; inconclusive means weak or mixed curves, or effect the other way; the % refers to the signal ratio; further: on the % scale 0 is the no-effect control and ±100 the full control effect); details: ER-beta-UAS-bla HEK293T, beta-lactamase FRET ratio, 16 h; activation: at 92.4 µM (top of the series) unless noted
# UniProt Q92731, sequence (Q92731 whole entry, looked up, the tested form may be a part): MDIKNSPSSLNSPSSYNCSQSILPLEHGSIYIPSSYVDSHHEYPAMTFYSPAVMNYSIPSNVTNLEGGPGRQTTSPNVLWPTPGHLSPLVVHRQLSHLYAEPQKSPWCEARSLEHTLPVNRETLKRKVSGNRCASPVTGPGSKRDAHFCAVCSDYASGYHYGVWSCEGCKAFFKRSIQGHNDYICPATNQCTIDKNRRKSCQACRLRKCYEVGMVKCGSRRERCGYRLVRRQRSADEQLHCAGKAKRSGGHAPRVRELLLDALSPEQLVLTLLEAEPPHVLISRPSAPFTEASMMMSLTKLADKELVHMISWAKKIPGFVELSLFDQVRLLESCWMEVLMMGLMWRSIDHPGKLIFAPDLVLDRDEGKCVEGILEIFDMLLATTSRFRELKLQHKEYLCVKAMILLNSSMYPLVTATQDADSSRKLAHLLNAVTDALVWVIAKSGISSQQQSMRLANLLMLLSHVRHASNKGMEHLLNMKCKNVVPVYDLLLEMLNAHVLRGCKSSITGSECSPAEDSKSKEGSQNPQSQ
# Summary of the method: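 Agonist mode cell assay in GripTite HEK293T cells expressing an ER-beta fusion that drives beta-lactamase from an Upstream Activator Sequence; 16 hr compound exposure at 37C, then 2 h LiveBLAzer B/G FRET substrate at room temperature, fluorescence read-out.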
# Tags describe the fitted curve by direction and shape.
compound,measurement,setting,value
Nc1ccc([N+](=O)[O-])c(N)c1,Potency,[1],inactive
same,Potency,[2],"inconclusive: 0.301 µM [cytotoxic, full curve, poor fit]"
same,Potency,[3],"inconclusive: 61.7 µM [inhibitor, partial curve]"
same,Potency,[4],inactive
same,Potency,[5],inactive
same,Potency,[6],"inconclusive: 29.9 µM [cytotoxic, partial curve]"
Cc1cc(NC(=O)C2=C(O)c3ccccc3S(=O)(=O)N2C)no1,Potency,[2],"inconclusive: 26.8 µM [rising, partial curve, poor fit]"
same,Potency,[7],inactive
same,Potency,[3],"inconclusive: 34.7 µM [inhibitor, partial curve]"
same,activation (H2AX phosphorylation),[8],inconclusive: -9.7% [at 70.9 µM]
same,Potency,[9],"inconclusive: 38.9 µM [inhibitor, single point]"
OC1OCCOC1O (stereo not drawn),Potency,[3],inactive
CCCN(C1CCN(C(=O)C2CCNCC2)CC1)[C@@H]1CCc2ccc(OC)cc2C1,Potency,[2],"inconclusive: 9.77 µM [cytotoxic, partial curve, poor fit]"
same,Potency,[10],"inconclusive: 27.3 µM [cytotoxic, partial curve]"
same,Potency,[11],"inconclusive: 54.9 µM [cytotoxic, single point]"
same,Potency,[4],active: 4.33 µM
same,Potency,[12],"inconclusive: 34.4 µM [cytotoxic, partial curve, poor fit]"
same,Potency,[6],"inconclusive: 12.2 µM [cytotoxic, partial curve]"
Cc1ncsc1CCO,Potency,[1],inactive
same,Potency,[13],inactive
same,Potency,[14],inactive
same,Potency,[6],inactive
O=C(O)c1ccncc1,Potency,[3],active: 73 µM
same,Potency,[15],"inconclusive: 49.9 µM [falling, partial curve]"
same,Potency,[4],"inconclusive: 28.1 µM [inhibitor, single point]"
CCCC(C)C=O (stereo not drawn),Potency,[10],inactive
CC(CCO)CCCC(C)(C)O (stereo not drawn),Potency,[16],inconclusive: 61.1 µM [cytotoxic]
same,Potency,[13],inconclusive: 54.9 µM
same,Potency,[8],inactive
same,Potency,[4],"inconclusive: 77 µM [inhibitor, single point]"
same,Potency,[9],inactive
C=C(C)C(=O)OCCOC(=O)CC(C)=O,Potency,[17],"inconclusive: 0.436 µM [cytotoxic, single point]"
same,Potency,[11],inactive
same,activation,[18],inconclusive: 10.4%
COC(=O)CCC(=O)O,Potency,[1],inactive
same,Potency,[2],inactive
same,Potency,[10],inactive
Nc1ccc(C(=O)NCC(=O)O)cc1,Potency,[9],"inconclusive: 43.6 µM [inhibitor, single point]"

# Reference: PubChem BioAssay (Tox21)
